Eight molecules from patent US20220025050A1 (OSE IMMUNOTHERAPEUTICS, published 2022) can be followed below.

The EC50 is the concentration needed to bring the measured effect to its halfway point.

The chains are these.
B1: Chimeric anti-PD1 fused on its heavy chain to Type I-protein A (CD86) (other, not shown: small tags and cut ends)
heavy: QIQLVQSGPELKKPGETVKISCKASGYTFTHYGMNWVKQAPGKGLKWMGWINTNTGEPTYAEEFKGRFAFSLETSASAAFLQINNLKNEDTATYFCAKEREPGMDSWGQGTSVTVSSASTKGPSVFPLAPCSRSTSESTAALGCLVKDYFPEPVTVSWNSGALTSGVHTFPAVLQSSGLYSLSSVVTVPSSSLGTKTYTCNVDHKPSNTKVDKRV[human IgG4 Fc with S228P L445P (EU numbers) omitted here]APLKIQAYFNETADLPCQFANSQNQSLSELVVFWQDQENLVLNEVYLGKEKFDSVHSKYMGRTSFDSDSWTLRLHNLQIKDKGLYQCIIHHKKPTGMIRIHQMNSELSVLANFSQPEIVPISNITENVYINLTCSSIHGYPEPKKMSVLLRTKNSTIEYDGVMQKSQDNVTELYDVSISLSVSFPDVTSNMTIFCILETDKTRLLSSPFSIELEDPQPPPDH
light: DVLLTQTPLSLPVSLGDQASISCRSSQNIVHANGNTYLEWYLQKPGQSPKLLIYKVSNRFSGVPDRFSGSGSGTDFTLKITRVEAEDLGVYYCFQGSHVPNTFGGGTKLEIKRTVAAPSVFIFPPSDEQLKSGTASVVCLLNNFYPREAKVQWKVDNALQSGNSQESVTEQDSKDSTYSLSSTLTLSKADYEKHKVYACEVTHQGLSSPVTKSFNRGEC
notes: Bifunctional molecule
B2: Chimeric anti-PD1 fused on its heavy chain to Type I-protein B (CD80) (other, not shown: small tags and cut ends)
heavy: QIQLVQSGPELKKPGETVKISCKASGYTFTHYGMNWVKQAPGKGLKWMGWINTNTGEPTYAEEFKGRFAFSLETSASAAFLQINNLKNEDTATYFCAKEREPGMDSWGQGTSVTVSSASTKGPSVFPLAPCSRSTSESTAALGCLVKDYFPEPVTVSWNSGALTSGVHTFPAVLQSSGLYSLSSVVTVPSSSLGTKTYTCNVDHKPSNTKVDKRV[human IgG4 Fc with S228P L445P (EU numbers) omitted here]VIHVTKEVKEVATLSCGHNVSVEELAQTRIYWQKEKKMVLTMMSGDMNIWPEYKNRTIFDITNNLSIVILALRPSDEGTYECVVLKYEKDAFKREHLAEVTLSVKADFPTPSISDFEIPTSNIRRIICSTSGGFPEPHLSWLENGEELNAINTTVSQDPETELYAVSSKLDFNMTTNHSFMCLIKYGHLRVNQTFNWNTTKQEHFPDN
light: DVLLTQTPLSLPVSLGDQASISCRSSQNIVHANGNTYLEWYLQKPGQSPKLLIYKVSNRFSGVPDRFSGSGSGTDFTLKITRVEAEDLGVYYCFQGSHVPNTFGGGTKLEIKRTVAAPSVFIFPPSDEQLKSGTASVVCLLNNFYPREAKVQWKVDNALQSGNSQESVTEQDSKDSTYSLSSTLTLSKADYEKHKVYACEVTHQGLSSPVTKSFNRGEC
notes: Bifunctional molecule
B3: Chimeric anti-PD1 fused on its heavy chain to Type II-protein A (OX40L) (other, not shown: small tags and cut ends)
heavy: QIQLVQSGPELKKPGETVKISCKASGYTFTHYGMNWVKQAPGKGLKWMGWINTNTGEPTYAEEFKGRFAFSLETSASAAFLQINNLKNEDTATYFCAKEREPGMDSWGQGTSVTVSSASTKGPSVFPLAPCSRSTSESTAALGCLVKDYFPEPVTVSWNSGALTSGVHTFPAVLQSSGLYSLSSVVTVPSSSLGTKTYTCNVDHKPSNTKVDKRV[human IgG4 Fc with S228P L445P (EU numbers) omitted here]QVSHRYPRIQSIKVQFTEYKKEKGFILTSQKEDEIMKVQNNSVIINCDGFYLISLKGYFSQEVNISLHYQKDEEPLFQLKKVRSVNSLMVASLTYKDKVYLNVTTDNTSLDDFHVNGGELILIHQNPGEFCVL
light: DVLLTQTPLSLPVSLGDQASISCRSSQNIVHANGNTYLEWYLQKPGQSPKLLIYKVSNRFSGVPDRFSGSGSGTDFTLKITRVEAEDLGVYYCFQGSHVPNTFGGGTKLEIKRTVAAPSVFIFPPSDEQLKSGTASVVCLLNNFYPREAKVQWKVDNALQSGNSQESVTEQDSKDSTYSLSSTLTLSKADYEKHKVYACEVTHQGLSSPVTKSFNRGEC
notes: Bifunctional molecule
B4: Humanized anti-PD1 (VH SEQ ID NO:19, VL SEQ ID NO:28) fused on its light chain to Type I-protein A (CD86) (other)
heavy: QIQLVQSGSELKKPGASVKVSCKASGYTFTHYAMNWVRQAPGQGLEWMGWINTNTGEPTYAQGFTGRFVFSLDTSVSTAYLQISSLKAEDTAVYYCAREREPGMDTWGQGTLVTVSSASTKGPSVFPLAPCSRSTSESTAALGCLVKDYFPEPVTVSWNSGALTSGVHTFPAVLQSSGLYSLSSVVTVPSSSLGTKTYTCNVDHKPSNTKVDKRV[human IgG4 Fc with S228P L445P (EU numbers) omitted here]
light: DVVMTQSPLSLPVTLGQPASISCRSSQSLVHANTNTYLEWYQQRPGQSPRLLIYKVSNRFSGVPDRFSGSGSGTDFTLKISRVEAEDVGVYYCFQGTHVPNTFGQGTKLEIKRTVAAPSVFIFPPSDEQLKSGTASVVCLLNNFYPREAKVQWKVDNALQSGNSQESVTEQDSKDSTYSLSSTLTLSKADYEKHKVYACEVTHQGLSSPVTKSFNRGECGGGGSGGGGSGGGGSAPLKIQAYFNETADLPCQFANSQNQSLSELVVFWQDQENLVLNEVYLGKEKFDSVHSKYMGRTSFDSDSWTLRLHNLQIKDKGLYQCIIHHKKPTGMIRIHQMNSELSVLANFSQPEIVPISNITENVYINLTCSSIHGYPEPKKMSVLLRTKNSTIEYDGVMQKSQDNVTELYDVSISLSVSFPDVTSNMTIFCILETDKTRLLSSPFSIELEDPQPPPDH
notes: Bifunctional molecule
B5: Humanized anti-PD1 (VH SEQ ID NO:19, VL SEQ ID NO:28) fused on its light chain to Type I-protein B (CD80) (other)
heavy: QIQLVQSGSELKKPGASVKVSCKASGYTFTHYAMNWVRQAPGQGLEWMGWINTNTGEPTYAQGFTGRFVFSLDTSVSTAYLQISSLKAEDTAVYYCAREREPGMDTWGQGTLVTVSSASTKGPSVFPLAPCSRSTSESTAALGCLVKDYFPEPVTVSWNSGALTSGVHTFPAVLQSSGLYSLSSVVTVPSSSLGTKTYTCNVDHKPSNTKVDKRV[human IgG4 Fc with S228P L445P (EU numbers) omitted here]
light: DVVMTQSPLSLPVTLGQPASISCRSSQSLVHANTNTYLEWYQQRPGQSPRLLIYKVSNRFSGVPDRFSGSGSGTDFTLKISRVEAEDVGVYYCFQGTHVPNTFGQGTKLEIKRTVAAPSVFIFPPSDEQLKSGTASVVCLLNNFYPREAKVQWKVDNALQSGNSQESVTEQDSKDSTYSLSSTLTLSKADYEKHKVYACEVTHQGLSSPVTKSFNRGECGGGGSGGGGSGGGGSVIHVTKEVKEVATLSCGHNVSVEELAQTRIYWQKEKKMVLTMMSGDMNIWPEYKNRTIFDITNNLSIVILALRPSDEGTYECVVLKYEKDAFKREHLAEVTLSVKADFPTPSISDFEIPTSNIRRIICSTSGGFPEPHLSWLENGEELNAINTTVSQDPETELYAVSSKLDFNMTTNHSFMCLIKYGHLRVNQTFNWNTTKQEHFPDN
notes: Bifunctional molecule
B6: Humanized anti-PD1 (VH SEQ ID NO:19, VL SEQ ID NO:28) fused on its light chain to Type II-protein A (OX40L) (other)
heavy: QIQLVQSGSELKKPGASVKVSCKASGYTFTHYAMNWVRQAPGQGLEWMGWINTNTGEPTYAQGFTGRFVFSLDTSVSTAYLQISSLKAEDTAVYYCAREREPGMDTWGQGTLVTVSSASTKGPSVFPLAPCSRSTSESTAALGCLVKDYFPEPVTVSWNSGALTSGVHTFPAVLQSSGLYSLSSVVTVPSSSLGTKTYTCNVDHKPSNTKVDKRV[human IgG4 Fc with S228P L445P (EU numbers) omitted here]
light: DVVMTQSPLSLPVTLGQPASISCRSSQSLVHANTNTYLEWYQQRPGQSPRLLIYKVSNRFSGVPDRFSGSGSGTDFTLKISRVEAEDVGVYYCFQGTHVPNTFGQGTKLEIKRTVAAPSVFIFPPSDEQLKSGTASVVCLLNNFYPREAKVQWKVDNALQSGNSQESVTEQDSKDSTYSLSSTLTLSKADYEKHKVYACEVTHQGLSSPVTKSFNRGECGGGGSGGGGSGGGGSQVSHRYPRIQSIKVQFTEYKKEKGFILTSQKEDEIMKVQNNSVIINCDGFYLISLKGYFSQEVNISLHYQKDEEPLFQLKKVRSVNSLMVASLTYKDKVYLNVTTDNTSLDDFHVNGGELILIHQNPGEFCVL
notes: Bifunctional molecule
B7: Humanized anti-PD1 (VH SEQ ID NO:19, VL SEQ ID NO:28) fused on its light chain to Cytokine-protein A (IL-7) (other)
heavy: QIQLVQSGSELKKPGASVKVSCKASGYTFTHYAMNWVRQAPGQGLEWMGWINTNTGEPTYAQGFTGRFVFSLDTSVSTAYLQISSLKAEDTAVYYCAREREPGMDTWGQGTLVTVSSASTKGPSVFPLAPCSRSTSESTAALGCLVKDYFPEPVTVSWNSGALTSGVHTFPAVLQSSGLYSLSSVVTVPSSSLGTKTYTCNVDHKPSNTKVDKRV[human IgG4 Fc with S228P L445P (EU numbers) omitted here]
light: DVVMTQSPLSLPVTLGQPASISCRSSQSLVHANTNTYLEWYQQRPGQSPRLLIYKVSNRFSGVPDRFSGSGSGTDFTLKISRVEAEDVGVYYCFQGTHVPNTFGQGTKLEIKRTVAAPSVFIFPPSDEQLKSGTASVVCLLNNFYPREAKVQWKVDNALQSGNSQESVTEQDSKDSTYSLSSTLTLSKADYEKHKVYACEVTHQGLSSPVTKSFNRGECGGGGSGGGGSGGGGSDCDIEGKDGKQYESVLMVSIDQLLDSMKEIGSNCLNNEFNFFKRHICDANKEGMFLFRAARKLRQFLKMNSTGDFDLHLLKVSEGTTILLNCTGQVKGRKPAALGEAQPTKSLEENKSLKEQKKLNDLCFLKRLLQEIKTCWNKILMGTKEH
notes: Bifunctional molecule
B8: Humanized anti-PD1 (VH SEQ ID NO:19, VL SEQ ID NO:28) fused on its light chain to Type II-protein B (4-1BBL) (other)
heavy: QIQLVQSGSELKKPGASVKVSCKASGYTFTHYAMNWVRQAPGQGLEWMGWINTNTGEPTYAQGFTGRFVFSLDTSVSTAYLQISSLKAEDTAVYYCAREREPGMDTWGQGTLVTVSSASTKGPSVFPLAPCSRSTSESTAALGCLVKDYFPEPVTVSWNSGALTSGVHTFPAVLQSSGLYSLSSVVTVPSSSLGTKTYTCNVDHKPSNTKVDKRV[human IgG4 Fc with S228P L445P (EU numbers) omitted here]
light: DVVMTQSPLSLPVTLGQPASISCRSSQSLVHANTNTYLEWYQQRPGQSPRLLIYKVSNRFSGVPDRFSGSGSGTDFTLKISRVEAEDVGVYYCFQGTHVPNTFGQGTKLEIKRTVAAPSVFIFPPSDEQLKSGTASVVCLLNNFYPREAKVQWKVDNALQSGNSQESVTEQDSKDSTYSLSSTLTLSKADYEKHKVYACEVTHQGLSSPVTKSFNRGECGGGGSGGGGSGGGGSREGPELSPDDPAGLLDLRQGMFAQLVAQNVLLIDGPLSWYSDPGLAGVSLTGGLSYKEDTKELVVAKAGVYYVFFQLELRRVVAGEGSGSVSLALHLQPLRSAAGAAALALTVDLPPASSEARNSAFGFQGRLLHLSAGQRLGVHLHTEARARHAWQLTQGATVLGLFRVTPEIPAGLPSPRSE
notes: Bifunctional molecule

The target in one assay is T1, recombinant hPD1 (Sino Biologicals, reference 10377-H08H) (human, UniProt Q15116 part only).
T1 construct: also called Human recombinant PD-1 protein; PD1-His recombinant protein
T1 sequence (Q15116 25-167 limits assumed): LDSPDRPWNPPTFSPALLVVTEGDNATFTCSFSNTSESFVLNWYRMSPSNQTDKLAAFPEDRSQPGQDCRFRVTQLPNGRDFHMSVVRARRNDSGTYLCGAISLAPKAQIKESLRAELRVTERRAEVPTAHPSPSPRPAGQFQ
Put plainly: ELISA: hPD-1 immobilized, anti-human Fc peroxidase. On the technique in general: ELISA stands for enzyme-linked immunosorbent assay.
In the case of B1, the EC50 amounted to 4.92 ng/mL. Still for that read-out and setting: as for B2, the figure is 3.84 ng/mL; as for B3, 3.89 ng/mL.

Another assay has as its target T1, recombinant hPD1 (Sino Biologicals, …). Put plainly: ELISA: hPD-1 immobilized, anti-human Fc peroxidase. This is another data set of the same source.
Regarding B4, the EC50 was determined as 8.89 ng/mL. With B5, the EC50 is 8.91 ng/mL.

On to B6, for which the EC50 is 5.41 ng/mL. B7: the EC50 worked out at 6.17 ng/mL.

As to B8, the EC50 worked out at 8 ng/mL.
